{"source": "the supplement of paper PMC8728848", "experiment_in_all_cases": "glycan array binding signal (z-score within array); higher = stronger binding", "conditions_in_all_cases": "glycan notation: IUPAC condensed, linker removed", "key": {"Gal3S(b1-4)GlcNAc": {"target": "Gal3S(b1-4)GlcNAc", "how_it_was_run": "(§1)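 Negative Z-scores can be read as non-binding. The Z-score is calculated within each array and then averaged across arrays of one protein sequence at different concentrations or buffers and across linkers. Arrays, 3228 in all, were curated from the Consortium for Functional Glycomics database and kept only where the protein sequence was available.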"}, "Gal3S(b1-4)GlcNAc6S": {"target": "Gal3S(b1-4)GlcNAc6S", "how_it_was_run": "as §1"}, "[1]": {"target": "Gal3S(b1-4)[Fuc(a1-3)]Glc", "how_it_was_run": "as §1"}, "[2]": {"target": "Gal3S(b1-4)[Fuc(a1-3)]Glc6S", "how_it_was_run": "as §1"}, "Gal3S4S(b1-4)GlcNAc": {"target": "Gal3S4S(b1-4)GlcNAc", "how_it_was_run": "as §1"}, "Gal3S6S(b1-4)GlcNAc": {"target": "Gal3S6S(b1-4)GlcNAc", "how_it_was_run": "as §1"}, "Gal3S6S(b1-4)GlcNAc6S": {"target": "Gal3S6S(b1-4)GlcNAc6S", "how_it_was_run": "as §1"}, "Gal4S(b1-4)GlcNAc": {"target": "Gal4S(b1-4)GlcNAc", "how_it_was_run": "as §1"}, "Gal4S6S(b1-4)GlcNAc": {"target": "Gal4S6S(b1-4)GlcNAc", "how_it_was_run": "as §1"}, "Gal6S(b1-3)GlcNAc": {"target": "Gal6S(b1-3)GlcNAc", "how_it_was_run": "as §1"}, "Gal6S(b1-3)GlcNAc6S": {"target": "Gal6S(b1-3)GlcNAc6S", "how_it_was_run": "as §1"}, "Gal6S(b1-4)Glc": {"target": "Gal6S(b1-4)Glc", "how_it_was_run": "as §1"}, "Gal6S(b1-4)Glc6S": {"target": "Gal6S(b1-4)Glc6S", "how_it_was_run": "as §1"}, "Gal6S(b1-4)GlcNAc": {"target": "Gal6S(b1-4)GlcNAc", "how_it_was_run": "as §1"}, "Gal6S(b1-4)GlcNAc6S": {"target": "Gal6S(b1-4)GlcNAc6S", "how_it_was_run": "as §1"}, "GalNAc(a1-3)Gal": {"target": "GalNAc(a1-3)Gal", "how_it_was_run": "as §1"}, "GalNAc(a1-3)GalNAc": {"target": "GalNAc(a1-3)GalNAc", "how_it_was_run": "as §1"}, "[3]": {"target": "GalNAc(a1-3)GalNAc(a1-3)Gal(a1-4)Gal(b1-4)GlcNAc", "how_it_was_run": "as §1"}, "[4]": {"target": "GalNAc(a1-3)GalNAc(b1-3)Gal(a1-4)Gal(b1-4)Glc", "how_it_was_run": "as §1"}, "GalNAc(b1-3)Gal": {"target": "GalNAc(b1-3)Gal", "how_it_was_run": "as §1"}, "[5]": {"target": "GalNAc(b1-3)Gal(a1-4)Gal(b1-4)GlcNAc", "how_it_was_run": "as §1"}, "[6]": {"target": "GalNAc(b1-3)Gal(a1-4)Gal(b1-4)GlcNAc(b1-3)Gal(b1-4)Glc", "how_it_was_run": "as §1"}, "[7]": {"target": "GalNAc(b1-3)Gal(a1-6)Gal(b1-4)Glc", "how_it_was_run": "as §1"}, "GalNAc(b1-3)GalNAc": {"target": "GalNAc(b1-3)GalNAc", "how_it_was_run": "as §1"}, "GalNAc(b1-4)GlcNAc": {"target": "GalNAc(b1-4)GlcNAc", "how_it_was_run": "as §1"}, "[8]": {"target": "GalNAc(b1-4)GlcNAc(b1-2)Man(a1-3)[GalNAc(b1-4)GlcNAc(b1-2)Man(a1-6)]Man(b1-4)GlcNAc(b1-4)GlcNAc", "how_it_was_run": "as §1"}, "GalNAc(b1-6)GalNAc": {"target": "GalNAc(b1-6)GalNAc", "how_it_was_run": "as §1"}, "Glc(a1-4)Glc": {"target": "Glc(a1-4)Glc", "how_it_was_run": "as §1"}, "Glc(a1-6)Glc(a1-6)Glc": {"target": "Glc(a1-6)Glc(a1-6)Glc", "how_it_was_run": "as §1"}, "Glc(b1-4)Glc": {"target": "Glc(b1-4)Glc", "how_it_was_run": "as §1"}, "Glc(b1-6)Glc": {"target": "Glc(b1-6)Glc", "how_it_was_run": "as §1"}, "GlcA(b1-3)Gal": {"target": "GlcA(b1-3)Gal", "how_it_was_run": "as §1"}, "GlcA(b1-3)GlcNAc": {"target": "GlcA(b1-3)GlcNAc", "how_it_was_run": "as §1"}, "GlcA(b1-6)Gal": {"target": "GlcA(b1-6)Gal", "how_it_was_run": "as §1"}, "[9]": {"target": "GlcNAc(a1-3)Gal(b1-4)GlcNAc", "how_it_was_run": "as §1"}, "[10]": {"target": "GlcNAc(a1-4)Gal(b1-3)GlcNAc", "how_it_was_run": "as §1"}, "[11]": {"target": "GlcNAc(a1-4)Gal(b1-4)GalNAc", "how_it_was_run": "as §1"}, "[12]": {"target": "GlcNAc(a1-4)Gal(b1-4)GlcNAc", "how_it_was_run": "as §1"}}, "note": "The other results are listed elsewhere or left out.", "data": [{"binder": "Gal 3 (Canis lupus) (protein) MADSFSLNDALSGSGNPNPQGWPGPWGNQPAGAGGYPGASYPGAYPGQAPPGGYPGQAPPGGYPGQAPPGGYPGQAPPGGYPGQAPPGGYPGQAPPGTYPGPTAPAYPGPTAPGTQPGQPSGPGAYPPPGQPSAPGAYPAAGPFGIPAGPLTVPYDLPLPGGVKPRMLITILGTVRPSANRLALDFKRGNDVAFHFNPRFNEDNKRVIVCNTKLDNIWGKEERQAAFPFESGKPFKIQVLVESDHFKVAVNDAHLLQYNHRMKNLPEISKLGISGDIDLTSASYAMI", "values": [{"measurement": "glycan array binding signal (z-score)", "setting": "Gal3S(b1-4)GlcNAc", "value": 0.047}, {"measurement": "glycan array binding signal (z-score)", "setting": "Gal3S(b1-4)GlcNAc6S", "value": 0.421}, {"measurement": "glycan array binding signal (z-score)", "setting": "[1]", "value": -0.266}, {"measurement": "glycan array binding signal (z-score)", "setting": "[2]", "value": -0.212}, {"measurement": "glycan array binding signal (z-score)", "setting": "Gal3S4S(b1-4)GlcNAc", "value": -0.05}, {"measurement": "glycan array binding signal (z-score)", "setting": "Gal3S6S(b1-4)GlcNAc", "value": -0.257}, {"measurement": "glycan array binding signal (z-score)", "setting": "Gal3S6S(b1-4)GlcNAc6S", "value": -0.242}, {"measurement": "glycan array binding signal (z-score)", "setting": "Gal4S(b1-4)GlcNAc", "value": -0.251}, {"measurement": "glycan array binding signal (z-score)", "setting": "Gal4S6S(b1-4)GlcNAc", "value": -0.25}, {"measurement": "glycan array binding signal (z-score)", "setting": "Gal6S(b1-3)GlcNAc", "value": -0.145}, {"measurement": "glycan array binding signal (z-score)", "setting": "Gal6S(b1-3)GlcNAc6S", "value": -0.134}, {"measurement": "glycan array binding signal (z-score)", "setting": "Gal6S(b1-4)Glc", "value": -0.262}, {"measurement": "glycan array binding signal (z-score)", "setting": "Gal6S(b1-4)Glc6S", "value": -0.274}, {"measurement": "glycan array binding signal (z-score)", "setting": "Gal6S(b1-4)GlcNAc", "value": -0.253}, {"measurement": "glycan array binding signal (z-score)", "setting": "Gal6S(b1-4)GlcNAc6S", "value": -0.252}, {"measurement": "glycan array binding signal (z-score)", "setting": "GalNAc(a1-3)Gal", "value": -0.272}, {"measurement": "glycan array binding signal (z-score)", "setting": "GalNAc(a1-3)GalNAc", "value": -0.267}, {"measurement": "glycan array binding signal (z-score)", "setting": "[3]", "value": -0.258}, {"measurement": "glycan array binding signal (z-score)", "setting": "[4]", "value": -0.146}, {"measurement": "glycan array binding signal (z-score)", "setting": "GalNAc(b1-3)Gal", "value": -0.251}, {"measurement": "glycan array binding signal (z-score)", "setting": "[5]", "value": -0.257}, {"measurement": "glycan array binding signal (z-score)", "setting": "[6]", "value": 0.568}, {"measurement": "glycan array binding signal (z-score)", "setting": "[7]", "value": -0.254}, {"measurement": "glycan array binding signal (z-score)", "setting": "GalNAc(b1-3)GalNAc", "value": -0.259}, {"measurement": "glycan array binding signal (z-score)", "setting": "GalNAc(b1-4)GlcNAc", "value": -0.237}, {"measurement": "glycan array binding signal (z-score)", "setting": "[8]", "value": -0.152}, {"measurement": "glycan array binding signal (z-score)", "setting": "GalNAc(b1-6)GalNAc", "value": -0.146}, {"measurement": "glycan array binding signal (z-score)", "setting": "Glc(a1-4)Glc", "value": -0.262}, {"measurement": "glycan array binding signal (z-score)", "setting": "Glc(a1-6)Glc(a1-6)Glc", "value": -0.269}, {"measurement": "glycan array binding signal (z-score)", "setting": "Glc(b1-4)Glc", "value": -0.261}, {"measurement": "glycan array binding signal (z-score)", "setting": "Glc(b1-6)Glc", "value": -0.255}, {"measurement": "glycan array binding signal (z-score)", "setting": "GlcA(b1-3)Gal", "value": -0.26}, {"measurement": "glycan array binding signal (z-score)", "setting": "GlcA(b1-3)GlcNAc", "value": -0.187}, {"measurement": "glycan array binding signal (z-score)", "setting": "GlcA(b1-6)Gal", "value": -0.272}, {"measurement": "glycan array binding signal (z-score)", "setting": "[9]", "value": -0.205}, {"measurement": "glycan array binding signal (z-score)", "setting": "[10]", "value": -0.262}, {"measurement": "glycan array binding signal (z-score)", "setting": "[11]", "value": -0.243}, {"measurement": "glycan array binding signal (z-score)", "setting": "[12]", "value": -0.265}]}]}
